Source: PubChem BioAssay AID624417 (National Center for Advancing Translational Sciences (NCATS), 2012)
Several values for one entry are separate records, joined by “and”; a condition that tells them apart may be missing. Equal values may be shown once. Screen size: about 410,000 compounds; about 6,400 (1.6%) were called active. The inconclusive results got no clear call from the source; some entries with a clear call stand among them for comparison. Calls come from the whole dose curve; as a rule, active = well fitted inhibition curve with a large enough effect; inconclusive = small, poorly fitted or top-dose-only effect; inactive = no such curve, though single readings can be large or run the other way. A potency beside an inconclusive call is a rough fit, not a confirmed value.

molecular target: Glucagon-like peptide 1 receptor (Homo sapiens) (UniProt P43220); test: qHTS of GLP-1 Receptor Inverse Agonists (Inhibition Mode); settings: HEK293 GLP-1R CRE-luciferase, luminescence, 24 h, GLP-1R form is constitutively active; activity change, negative = inhibition: at 38.3 µM (top of the series) unless noted; note: nearly all actives have a fitted effect of over 55% in size
Method in brief: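 Inverse agonists were sought by their lowering of basal cAMP reporter luciferase output in HEK293 cells stably carrying constitutively active human GLP-1R, after 24 h compound treatment.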
% is set by controls: 0 for no effect and ±100 for the full control effect; potency is the fitted concentration of half-maximal effect; tags give direction and shape of the fitted curve.

Chain of UniProt P43220 (P43220 whole entry, looked up): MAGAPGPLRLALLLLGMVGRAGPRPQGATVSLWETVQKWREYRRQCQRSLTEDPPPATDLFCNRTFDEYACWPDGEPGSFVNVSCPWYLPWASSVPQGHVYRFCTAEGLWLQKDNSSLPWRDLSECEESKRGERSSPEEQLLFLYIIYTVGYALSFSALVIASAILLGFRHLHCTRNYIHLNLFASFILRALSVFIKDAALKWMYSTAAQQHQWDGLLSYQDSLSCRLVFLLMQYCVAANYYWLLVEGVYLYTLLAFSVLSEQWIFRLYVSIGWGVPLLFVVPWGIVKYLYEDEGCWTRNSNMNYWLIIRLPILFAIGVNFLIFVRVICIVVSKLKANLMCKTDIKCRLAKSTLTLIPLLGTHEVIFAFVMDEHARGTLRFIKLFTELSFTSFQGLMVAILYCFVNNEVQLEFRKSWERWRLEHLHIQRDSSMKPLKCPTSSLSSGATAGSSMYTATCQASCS

`COc1ccc(C(C(=O)NC2CCCCC2)n2c(=O)c(-c3cc4ccccc4[nH]3)nc3ccccc32)cc1` (configuration not stated) was tested. Which Potency did it give?
The Potency was inconclusive: 7.94 µM [inhibitor, partial curve].

Which Potency does the source give for `Cc1ccc(NS(=O)(=O)c2c(C)[nH]c(C)c2C(=O)N2CCCCC2)cc1C` here?
The Potency was inconclusive: 3.16 µM [inhibitor, partial curve, poor fit].

For `Cc1ccc(S(=O)(=O)Nc2cccc3cccnc23)cc1`, which Potency is on record?
Its Potency is inconclusive: 3.55 µM [inhibitor, full curve, poor fit].

How did the Potency turn out when `CCN(CCCNC(=O)c1cc2cc3ccc(OC)cc3nc2s1)c1cccc(C)c1` was run?
The Potency was inconclusive: 12.6 µM [inhibitor, single point].

For `O=C(Nc1ccc2oc(-c3ccccc3)nc2c1)c1cccnc1`, which “activity change, negative = inhibition” value is on record?
Its value is inactive: 18.9%.

`CCOC(=O)c1ccn(-c2nc(-c3ccco3)cc(C(F)(F)F)n2)n1` was tested. Which Potency did it give?
The Potency was inconclusive: 10 µM [inhibitor, partial curve, poor fit].

With `CCOC(=O)N1CCN(C(=O)CNC(=O)c2ccc(Br)o2)CC1` as the compound, how does the “activity change, negative = inhibition” value read?
Its value is inactive: 5.85%.

Which Potency does the source give for `C(=C\c1nnc2c3ccccc3ncn12)/c1ccccc1` here?
Its Potency is inconclusive: 3.55 µM [inhibitor, partial curve].

How did the “activity change, negative = inhibition” value turn out when `COCCNC(=O)c1c[nH]c2ccc(S(=O)(=O)N3CCOCC3)cc2c1=O` was run?
Its value is inactive: 5.3%.

Which Potency does the source give for `NS(=O)(=O)c1ccc(NC(=O)COC(=O)c2c3c(nc4ccccc24)/C(=C\c2ccc4c(c2)OCO4)CCC3)cc1` here?
Its Potency is inconclusive: 15.8 µM [inhibitor, single point].

`O=C(CCS(=O)(=O)c1cc(Br)cc2c1N(C(=O)C1CC1)CC2)Nc1ccc(F)cc1` was tested. Which “activity change, negative = inhibition” value did it give?
Its value is inactive: 16%.

How did the Potency turn out when `COc1cccc(NC(CNS(=O)(=O)c2ccc(Cl)cc2)c2ccccc2)c1` (configuration not stated) was run?
The Potency was active: 10 µM.

With `CCc1ccc(C2=NN(CCC(=O)NC(C)CCc3ccccc3)C(=O)CC2)cc1` (configuration not stated) as the compound, how does the Potency read?
The Potency was inconclusive: 15.8 µM [inhibitor, single point].

Which Potency does the source give for `O=C(N/N=C/c1cc(Cl)ccc1O)c1ccc(Br)cc1` here?
Its Potency is inconclusive: 1 µM [inhibitor, full curve, poor fit].

For `CCCCOc1ccc(-c2nnn(CC(=O)NCCc3c[nH]c4ccccc34)n2)cc1`, which Potency is on record?
The Potency was inconclusive: 3.55 µM [inhibitor, full curve, poor fit].

Which Potency does the source give for `C/C(=N/Nc1ccc([N+](=O)[O-])cc1)c1c[nH]c2ccccc12` here?
Its Potency is active: 2.51 µM.

How did the Potency turn out when `COc1ccc(N=C2SC(CC(=O)Nc3ccccc3F)C(=O)N2Cc2ccco2)cc1` (configuration not stated) was run?
The Potency was inconclusive: 12.6 µM [inhibitor, partial curve, poor fit].

With `O=C(CCCl)N1c2ccccc2C=Cc2ccccc21` as the compound, how does the Potency read?
Its Potency is inconclusive: 22.4 µM [inhibitor, single point].

How did the Potency turn out when `COc1ccccc1/C=C/CN1CCN(Cc2ccc(F)cc2)C(CCO)C1` (configuration not stated) was run?
The Potency was inconclusive: 10 µM [inhibitor, partial curve, poor fit].

How did the Potency turn out when `O=C(Nc1ccccc1N1CCCC1)c1ccccc1Cl` was run?
Its Potency is inconclusive: 28.2 µM [inhibitor, single point].

How did the Potency turn out when `COc1ccc(-c2nc3ccc(C(=O)NCCCN4CCOCC4)cc3nc2-c2ccc(OC)cc2)cc1` was run?
Its Potency is inconclusive: 12.6 µM [inhibitor, partial curve, poor fit].

Which Potency does the source give for `COc1cccc2c1C(=N)c1c(O)c3c(c(O)c1C2=O)CC(O)(C(C)=O)CC3OC1CC(N)C(O)C(C)O1` (configuration not stated) here?
Its Potency is inconclusive: 28.2 µM [inhibitor, single point].

For `COc1ccc(N(C)S(=O)(=O)c2ccc(Cl)c(C(=O)NCCc3ccc(Cl)cc3)c2)cc1`, which Potency is on record?
The Potency was inconclusive: 2.51 µM [inhibitor, partial curve, poor fit].

For `COc1ccc(C(=O)N2CC(=O)N(CCc3ccccc3)C(=O)C2)cc1OC`, which “activity change, negative = inhibition” value is on record?
Its value is inactive: 19.2%.

Which Potency does the source give for `O=[N+]([O-])/C=C\c1ccc(N2CCCC2)c(F)c1` here?
Its Potency is inconclusive: 3.16 µM [inhibitor, partial curve, poor fit].

With `O=C(NC(=S)Nc1cc([N+](=O)[O-])ccc1O)c1ccc2c(c1)OCO2` as the compound, how does the Potency read?
Its Potency is inconclusive: 3.55 µM [inhibitor, full curve, poor fit].

How did the Potency turn out when `CCc1noc(C)c1C(=O)Nc1ccc(C(F)(F)F)cc1` was run?
Its Potency is inconclusive: 28.2 µM [inhibitor, single point].

With `CCOc1ccccc1CNC(=O)c1cnc2sc(N3CCOCC3)nn2c1=O` as the compound, how does the “activity change, negative = inhibition” value read?
The value was inactive: 2.99%.

How did the Potency turn out when `Cc1ccc(CCNC(=O)CCn2ccc3cc(S(=O)(=O)N4CCCC4)ccc32)cc1` was run?
Its Potency is inconclusive: 20 µM [inhibitor, single point].

For `CCCCC[C@H](C)N1C[C@H](COCc2ccccc2)Oc2cc(N3CCC[C@H]3C(N)=O)ccc2S1(=O)=O`, which Potency is on record?
Its Potency is inconclusive: 28.2 µM [inhibitor, single point].

`O=C(N/N=C/c1ccc([N+](=O)[O-])o1)c1ccc(O)cc1` was tested. Which Potency did it give?
The Potency was inconclusive: 28.2 µM [inhibitor, single point].

How did the “activity change, negative = inhibition” value turn out when `CCOc1ccc(CCNC(=O)Cn2ncc3c([nH]c4ccccc43)c2=O)cc1OCC` was run?
The value was inactive: 1.52%.

With `CCc1cccc(NC(=O)C2CCC(CNS(=O)(=O)c3ccc4c(c3)CCCC(=O)N4)CC2)c1` (configuration not stated) as the compound, how does the Potency read?
The Potency was inconclusive: 28.2 µM [inhibitor, single point].

For `CCc1cc(C(=O)N2CCN(c3ncc(C(F)(F)F)cc3Cl)CC2)sc1C`, which Potency is on record?
Its Potency is inconclusive: 10 µM [inhibitor, partial curve, poor fit].

For `CCN(CC)S(=O)(=O)c1ccc(N2CCc3ccccc3C2)nc1`, which Potency is on record?
The Potency was inconclusive: 11.2 µM [inhibitor, partial curve, poor fit].

Which Potency does the source give for `O=C(O)c1ccccc1Nc1ccc(OC(F)F)cc1` here?
Its Potency is inconclusive: 28.2 µM [inhibitor, single point].

`COc1ccc(-n2c(C)nc3cc(C(=O)NC4CCCCCC4)ccc32)cc1` was tested. Which Potency did it give?
Its Potency is inconclusive: 10 µM [inhibitor, single point].

Which Potency does the source give for `Cc1ccc(C)c(N2C(=O)N(C)c3ccccc3S2(=O)=O)c1` here?
The Potency was inconclusive: 28.2 µM [inhibitor, single point].

Which “activity change, negative = inhibition” value does the source give for `COC(=O)c1c(NC(=O)c2nc(SCc3ccccc3C)ncc2Cl)sc2c1CCCC2` here?
Its value is inactive: 8.98%.

How did the Potency turn out when `Nc1c(-c2ccccc2)c(CSc2nc3ccccc3[nH]2)nn1-c1ccc(Cl)cc1` was run?
Its Potency is inconclusive: 11.2 µM [inhibitor, partial curve, poor fit].

Which Potency does the source give for `CCCN(CCC)CCNC(=O)c1sc2nc3n(c(=O)c2c1C)CCCCC3` here?
The Potency was inconclusive: 2.82 µM [inhibitor, single point].

Which Potency does the source give for `CN1CCN(C(c2ccccc2)c2ccc(Cl)cc2)CC1` (configuration not stated) here?
Its Potency is inconclusive: 10 µM [inhibitor, partial curve, poor fit].

How did the Potency turn out when `CN1CCCN(C(=O)CC(c2ccccc2)c2ccccc2)CC1` was run?
Its Potency is inconclusive: 10 µM [inhibitor, partial curve].

With `OC1c2cc(Br)ccc2N=C2CCCN21` (configuration not stated) as the compound, how does the Potency read?
Its Potency is inconclusive: 28.2 µM [inhibitor, single point].

With `CCc1c(C)sc2c1CCN(C(=O)Nc1cc(C)ccc1OC)C2c1ccc(F)cc1` (configuration not stated) as the compound, how does the Potency read?
The Potency was inconclusive: 22.4 µM [inhibitor, single point].

Which Potency does the source give for `Cc1ccc(NS(=O)(=O)c2ccc3[nH]c4c(c3c2)CCCCCC4)cc1` here?
The Potency was inconclusive: 11.2 µM [inhibitor, single point].

How did the Potency turn out when `Cc1ccc(/C=C/c2ccc3cccc(O)c3n2)s1` was run?
The Potency was inconclusive: 28.2 µM [inhibitor, single point].

How did the Potency turn out when `C=CCN(c1ccccc1OC)S(=O)(=O)c1cccc(C(=O)NCc2cccs2)c1` was run?
The Potency was inconclusive: 10 µM [inhibitor, partial curve, poor fit].

For `CCCCCCCCCCOC(=O)Cn1c(COc2ccc(C)cc2)[n+](C)c2ccccc21`, which Potency is on record?
Its Potency is inconclusive: 14.1 µM [inhibitor, single point].

`Cc1ccc(NC(=O)c2cc(NC(=O)/C=C\C(=O)O)ccc2N2CCCCC2)cc1` was tested. Which Potency did it give?
Its Potency is inconclusive: 22.4 µM [inhibitor, single point].

Which “activity change, negative = inhibition” value does the source give for `Cc1cc(C)cc(NC(=O)N2CCC(CN3CCc4ccccc4C3)CC2)c1` here?
The value was inactive: -23%.

Which Potency does the source give for `CCN(CC)CCCNc1nc(-n2nc(C)cc2C)nc2sc3c(c12)CC(C)(C)OC3` here?
The Potency was inconclusive: 11.2 µM [inhibitor, single point].

For `COc1cccc(NC(=O)Nc2cc(Cl)ccc2C)c1`, which Potency is on record?
Its Potency is inconclusive: 12.6 µM [inhibitor, partial curve, poor fit].

With `Cc1ccc(NC(=O)C=NOCC(=O)Nc2cc(C)cc(C)c2)cc1` as the compound, how does the Potency read?
Its Potency is inconclusive: 12.6 µM [inhibitor, single point].

With `COc1cccc(NC(=O)CN(C)C(=O)c2ccc(-c3ccccc3Cl)o2)c1` as the compound, how does the Potency read?
The Potency was active: 8.91 µM.

Which Potency does the source give for `Cn1c(-c2c(N)n(C3CCCC3)c3nc4ccccc4nc23)nc2ccccc21` here?
Its Potency is active: 3.98 µM.

For `Cc1cccc2sc(N(CCCN(C)C)C(=O)c3ccc(C(=O)c4ccccc4)cc3)nc12`, which Potency is on record?
Its Potency is active: 5.01 µM.

Which Potency does the source give for `CCCOc1ccc(C(=O)NNC(=S)NC(=O)c2cccs2)cc1` here?
The Potency was inconclusive: 28.2 µM [inhibitor, single point].

Which Potency does the source give for `Cc1ccc(Nc2cc(C)c3c(O)cccc3n2)cc1C` here?
Its Potency is inconclusive: 28.2 µM [inhibitor, single point].

How did the Potency turn out when `COc1ccccc1-c1n[nH]c(=S)n1Cc1ccccc1` was run?
Its Potency is inconclusive: 20 µM [inhibitor, partial curve, poor fit].

For `C=CCc1ccc(OCc2ccc(C(=O)Nc3ccc(NC(C)=O)cc3)o2)c(OC)c1`, which Potency is on record?
The Potency was inconclusive: 10 µM [inhibitor, single point] and inconclusive: 28.2 µM [inhibitor, single point].

With `Cc1cc(C)c(/C=N/NC(=O)c2nnn(-c3nonc3N)c2CN2CCC(C)CC2)c(C)c1` as the compound, how does the Potency read?
Its Potency is inconclusive: 2.82 µM [inhibitor, full curve, poor fit].
